# ± gives the standard deviation. This is a selection; strong and weak results do not stand in their true shares.
# System: MIWI (PIWIL1) piRISC loaded with L1MC piRNA (30 nt)
# Assay: pre-steady-state target cleavage rate (min^-1); MIWI and MILI are mouse PIWI proteins and EfPiwi is from a freshwater sponge; tags in brackets are library labels; higher = faster piRNA-guided slicing of the target
# Conditions: guide: L1MC piRNA 5'p-UAACUAAAUACUAUGCAAGCUGUAGGUCCU; auxiliary factor: 500 nM mouse GTSF1
# Method in brief: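 Cleave-'n-Seq reactions paired 0.1 nM transcribed, DNA-blocked target RNA library with 1 nM active affinity-purified piRISC holding one synthetic guide, plus or minus 500 nM GTSF1 partner protein, in HEPES–potassium acetate buffer at 33 °C for 0–8 or 0–960 min. After sequencing of uncleaved targets and normalisation to depth and weakly complementary targets, the pre-steady-state cleavage rate was taken from a burst-and-steady-state fit. Three trials were pooled, and k3 was capped at 0.0001 min^-1.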
row,Sequence,pre-steady-state target cleavage rate
1,AGCACCUACAGCUUGCAUAGUAUUUAGAUA,1.01 ± 0.15
2,AGGACCUACAGCUUCGAUAGUAUUUAGUAA,0.463 ± 0.057
3,UCCUGGAUGUCGUUGCAUAGUAUUUAGUUC [g2:g18:cont:t1C],0.00724 ± 0.0025
4,AGCUCCUACAGCUUGCAUAGUAUUUUCAAA,0.323 ± 0.046
5,AGGUGGUACAGCUUGCAUAGUAUUUACAAA,0.107 ± 0.024
6,UCCUCCUACAGCUUGCAUAGUAUUUUCAAA [g6:g26:cont:t1A],0.483 ± 0.062
7,UCCUGGAUGUCCUUGCAAAGUAUUUAGUAA,0.00951 ± 0.0044
8,UCCUGGAUCUGCUUGCAUAGUAUUUUCAAA,0.0664 ± 0.013
9,UCCUCCUACAGCUUGCUAAGUAUUUACAAA,0.0127 ± 0.0064
10,UCCUGGAUCAGCUUCCAUAGUAUUUAGAAA,0.00542 ± 0.0041
11,UCCUGGAUGUCGAACGUAUCUAUUUAGCUUA,< 0.0001
12,UCCUGGAUCAGCUUGCAUAGUAAUAAGUUA,0.0493 ± 0.015
13,UCGACCUACAGCUAGCAUAGUAUUUAGAAA,0.5 ± 0.045
14,UCCACCUACAGCUUGCAUAGAAUUUACAAA,0.308 ± 0.054
15,UCCUGCUACAGCUACGAUAGUAUUUAGUAA,0.105 ± 0.031
16,UCCUCCUACAGCUUGCAUAGUAAUUUCAAA,0.264 ± 0.062
17,UCCUGGAUGUCCUUGCAUAGUAUUUUGAUA,0.00674 ± 0.0041
18,UCCACCUACAGCUUGCAUAGUAUUUUCAAA [g6:g27:cont:t1A],0.364 ± 0.052
19,UCCUGGAUGUCGAUGCAUAGUAUUGAGUUA,0.02 ± 0.006
20,UCCUGCUACUCCUUGCAUAGUAUUUACAAA,0.122 ± 0.02
21,UCGACCUACAGGAUGCAUAGUAUUUUCAAA,0.244 ± 0.033
22,UCCUGGAUCAGCUUGCAUAGUAUUUAUUA,0.112 ± 0.018
23,UCCUCCUACAGCUUGCAUAGUAAAAAGUAA,0.173 ± 0.038

# Reference: the supplement of paper PMC10338343
